Results as given in the supplement of paper PMC3334620.
Over roughly 33,000 sequences, “E-score (-0.5 to 0.5)” has its median near -0.035; the highest 2% begin near 0.34. The list shows a part of the results.

The sequences below were run against T1, Mot3 (UniProt P54785) (assay: PBM E-score (8-mer binding enrichment) (E-score (-0.5 to 0.5)); higher = stronger / more preferred TF binding; most listed sequences are background and not binding sites). Conditions: protein concentration: 200 nM; construct: GST-full length.
T1 sequence: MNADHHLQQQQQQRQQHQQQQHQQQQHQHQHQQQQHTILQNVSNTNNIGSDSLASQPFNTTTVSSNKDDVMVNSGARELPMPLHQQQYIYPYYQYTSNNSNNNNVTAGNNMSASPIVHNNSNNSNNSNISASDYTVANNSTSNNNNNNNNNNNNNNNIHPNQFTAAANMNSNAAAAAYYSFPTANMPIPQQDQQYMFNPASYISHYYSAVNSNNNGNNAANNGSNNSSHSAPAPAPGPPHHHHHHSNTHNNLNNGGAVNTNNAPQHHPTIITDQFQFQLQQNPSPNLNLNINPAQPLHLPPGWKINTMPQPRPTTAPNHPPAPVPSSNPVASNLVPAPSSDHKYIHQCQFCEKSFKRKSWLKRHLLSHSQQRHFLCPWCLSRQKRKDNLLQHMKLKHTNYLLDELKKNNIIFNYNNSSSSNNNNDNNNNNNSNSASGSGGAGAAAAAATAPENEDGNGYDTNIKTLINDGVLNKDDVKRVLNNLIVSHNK
Protocol: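 Universal 'all 10-mer' protein binding microarrays (Agilent AMADID 015681) probed with GST-tagged S. cerevisiae TFs (full-length or DBD) made by in vitro transcription/translation (PURExpress), about 100-200 nM. Bound TF was detected with fluorescent anti-GST. Each ungapped 8-mer (which stands for itself and its reverse complement) is scored by the PBM enrichment score (E-score), a modified Wilcoxon-Mann-Whitney statistic from -0.5 to +0.5, computed with the Universal PBM Analysis Suite. Scale: above 0.35 generally sequence-specific binding.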

Sequence | PBM E-score
ACTTAGCG | 0.0555
AGGCAAAC | 0.482
ATAAGGGC | -0.015
ATCACCAC | -0.158
CCTTCTCG | 0.0264
CAGAGAGG | -0.295
GGAGTGAC | 0.0443
GTGCACGA | 0.0362
ATGATATG | 0.106
ATTTGACC | -0.118
ACACAGTA | 0.278
AAGTCTAG | -0.261
ACCATGAC | -0.0808
GCGGAAAA | -0.0405
AAGACAAC | 0.032
GCAAGGAC | -0.0881
GCACCTGA | 0.0666
AGATGAGA | -0.147
CTGATATC | 0.00984
AATCTAAA | 0.107
ACAGAACT | -0.0328
AACGATGG | -0.148
ACCCTGAT | -0.0337
AATATGAC | 0.0135
CCTATTAA | 0.273

Sequence | PBM E-score
ACCGTTAG | -0.00592
AGCCAATG | -0.165
CAGATAAC | 0.047
CTCTCAGA | -0.0822
ACTCGTGG | -0.064
AATTATTG | 0.11
CCCTGCCG | -0.377
GAGGAGGA | -0.158
GTGTCGTA | 0.203
ACCGGTAA | -0.164
CCACGGGG | -0.197
CCGCCAAC | -0.231
GTGAGAAA | -0.13
GTTAGAAA | 0.0575
AAACAACC | 0.103
AAAGAGTT | -0.0531
CCCGCATA | -0.0498
GCCGTACA | 0.0115
ATTTCTGC | 0.0635
CTTAAGCA | 0.104
AGAGAGGA | -0.246
GTCGGTCA | -0.239
ATTCAGAG | -0.077
CACGAGAC | -0.0972
CCGAACTA | 0.0366

Sequence | PBM E-score
AGAATCGA | -0.245
CGTATCAG | 0.0545
AAACGGTT | 0.00323
CGGGTCAC | -0.293
ACGCCTAG | 0.0792
AAAGTCCG | -0.134
AACTTGGT | 0.0776
AGACTGAA | -0.159
CCCGTTCG | -0.208
ACCTCCAT | -0.162
ACACGCGA | 0.292
CTTATGTA | 0.342
ATCCAGCC | -0.162
TAACGTAA | 0.238
CCCGGACA | -0.107
TAGATTCA | 0.0881
GTGCCGTA | -0.114
GGTACGCA | 0.184
CTTTTAAC | 0.179
GTGCGTCA | -0.09
CAACTAGC | 0.0864
CGGACAGA | -0.168
AGATGGTA | -0.0476
CAAGGGAC | -0.127
CACGGGTA | 0.109

Sequence | PBM E-score
ATATCACA | -0.0131
AAACGTAA | 0.196
TATTCAGA | 0.0385
ATCGTTCC | -0.0114
ACCCTTAG | -0.233
AGCGTCTG | -0.287
CGTGGCGC | -0.105
GCGGGACA | -0.169
AGTTACAT | 0.289
CTGCTAAA | -0.0457
AAAGGATG | 0.0728
TACCAATA | -0.253
GAGTTCAC | 0.0255
AAAAAGCA | 0.165
CCCCCTAA | -0.283
TCACTACA | 0.211
CCACATAG | -0.075
AAAGTCAC | 0.135
AGAACGAC | -0.0101
AAACGAAT | 0.0906
CAGTAAGG | -0.0249
CTTAGCGC | 0.0443
CAGGTATG | -0.0119
AGTATTGG | -0.132
CGCTCGAC | -0.122

Sequence | PBM E-score
CTCCTGAC | -0.137
TCGGATCA | -0.0262
GGACCGCC | -0.212
ACCGTGCT | -0.11
GATGGGCC | -0.21
ATAGTCCG | -0.0291
GATGAACC | -0.163
CGTCAGCC | -0.16
CGAACAAC | 0.158
ATAATACA | 0.277
TAAGAGAA | 0.0821
TGAACACA | 0.249
GATGGCTA | -0.231
AGTCATAG | -0.191
AGGCTAGC | -0.225
AGTTCTAG | -0.215
AACTTCAC | 0.206
CCCTTTCG | 0.013
ATACTACC | -0.0241
AAAGACAC | 0.157
ATGTAACG | 0.268
CAGCCAAG | -0.0608
AACTGGGG | -0.146
AGAACTTA | 0.0806
CTCTACTC | -0.0283

Sequence | PBM E-score
AAACTAGA | 0.0148
GTTAGAGA | -0.15
AATTCCCA | 0.0871
AGACCATG | -0.0413
ATAGGTAC | 0.406
CTTTCGAA | -0.233
ACCTAGGG | -0.188
CTCTGTGA | 0.0651
CGTACCAA | -0.00968
GTGGACGA | -0.178
AAACAGCG | 0.0286
ACGTGATG | 0.0947
ACCACGAA | -0.00626
AGAGCCGA | -0.136
AGCTTTCC | -0.00795
ATCCGAAC | -0.281
GGCTATTA | 0.149
CTAGTACA | 0.287
AGGTGAGA | -0.129
ACTGCGCG | -0.24
AAATACTG | -0.108
AGCCGTCG | -0.0837
AGGGAAGA | -0.264
CAAGTATA | 0.159
CATACGGG | -0.0526

Sequence | PBM E-score
CACGGAGG | 0.221
AGGAAAAC | 0.416
CTCACTGC | -0.176
ATGGCAGC | -0.133
AGGGAATC | -0.109
ATAACGAT | -0.0363
CATGTAGG | 0.374
ATGGATAA | -0.096
TTTAAAAA | 0.0392
GACTATTA | -0.0916
ACCGTCGC | -0.0548
ACGCATAC | 0.0884
CTATTGCA | 0.0982
ACCTGTGG | 0.165
ACATGACT | 0.211
CGCAGTCA | 0.212
CCATCGAA | -0.218
CACCAGTG | -0.126
CAGACTAG | -0.266
CTCAGGAG | -0.0888
ACGGCTGC | -0.214
CAGTTCCC | -0.174
